# The supplement of paper PMC8728848
# The other results are listed elsewhere or left out.
# Key:
# Experiment in all cases: glycan array binding signal (z-score within array); higher = stronger binding
# Settings in all cases: glycan notation: IUPAC condensed, linker removed
# GlcNAc(b1-3)GalNAc = molecular target: GlcNAc(b1-3)GalNAc
# Summary of the method: (§1)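 The binding signal is a Z-score computed within each array and averaged over linkers. Arrays of the same protein sequence at different concentrations or buffers were also averaged together. Data originate from 3228 arrays in the Consortium for Functional Glycomics database, kept only where the protein sequence was available.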
# GlcNAc(b1-3)Man = molecular target: GlcNAc(b1-3)Man
# Summary of the method: as §1
# [1] = molecular target: GlcNAc(b1-3)[GlcNAc(b1-4)][GlcNAc(b1-6)]GlcNAc
# Summary of the method: as §1
# [2] = molecular target: GlcNAc(b1-3)[GlcNAc(b1-6)]Gal(b1-4)GlcNAc
# Summary of the method: as §1
# [3] = molecular target: GlcNAc(b1-3)[GlcNAc(b1-6)]GalNAc
# Summary of the method: as §1
# [4] = molecular target: GlcNAc(b1-4)Gal(b1-4)GlcNAc
# Summary of the method: as §1
# GlcNAc(b1-4)GlcNAc = molecular target: GlcNAc(b1-4)GlcNAc
# Summary of the method: as §1
# [5] = molecular target: GlcNAc(b1-4)GlcNAc(b1-4)GlcNAc
# Summary of the method: as §1
# [6] = molecular target: GlcNAc(b1-4)GlcNAc(b1-4)GlcNAc(b1-4)GlcNAc(b1-4)GlcNAc
# Summary of the method: as §1
# [7] = molecular target: GlcNAc(b1-4)GlcNAc(b1-4)GlcNAc(b1-4)GlcNAc(b1-4)GlcNAc(b1-4)GlcNAc
# Summary of the method: as §1
# [8] = molecular target: GlcNAc(b1-4)[GlcNAc(b1-6)]GalNAc
# Summary of the method: as §1
# [9] = molecular target: GlcNAc(b1-6)Gal(b1-4)GlcNAc
# Summary of the method: as §1
# GlcNAc(b1-6)GalNAc = molecular target: GlcNAc(b1-6)GalNAc
# Summary of the method: as §1
# [10] = molecular target: GlcNAc6S(b1-3)Gal(b1-4)GlcNAc
# Summary of the method: as §1
# Kdn(a2-3)Gal(b1-3)GalNAc = molecular target: Kdn(a2-3)Gal(b1-3)GalNAc
# Summary of the method: as §1
# Kdn(a2-3)Gal(b1-3)GlcNAc = molecular target: Kdn(a2-3)Gal(b1-3)GlcNAc
# Summary of the method: as §1
# Kdn(a2-3)Gal(b1-4)Glc = molecular target: Kdn(a2-3)Gal(b1-4)Glc
# Summary of the method: as §1
# Kdn(a2-3)Gal(b1-4)GlcNAc = molecular target: Kdn(a2-3)Gal(b1-4)GlcNAc
# Summary of the method: as §1
# [11] = molecular target: Kdn(a2-3)Gal(b1-4)[Fuc(a1-3)]GlcNAc
# Summary of the method: as §1
# Kdn(a2-6)Gal(b1-4)GlcNAc = molecular target: Kdn(a2-6)Gal(b1-4)GlcNAc
# Summary of the method: as §1
# [12] = molecular target: Man(a1-2)Man(a1-2)Man(a1-3)Man
# Summary of the method: as §1
# [13] = molecular target: Man(a1-2)Man(a1-2)Man(a1-6)[Man(a1-3)]Man
# Summary of the method: as §1
# Man(a1-2)Man(a1-3)Man = molecular target: Man(a1-2)Man(a1-3)Man
# Summary of the method: as §1
binder,measurement,setting,value
"SSR1 (Sclerotium rolfsii), A0A0M3KL30 (protein) TYKITVRVYQTNPDAFFHPVEKTVWKYANGGTWTITDDQHVLTMGGSGTSGTLRFHADNGESFTATFGVHNYKRWCDIVTNLAADETGMVINQQYYSQKNREEARERQLSNYQVKNAKGRNFQIVYTEAEGNDLHANLIIG",glycan array binding signal (z-score),GlcNAc(b1-3)GalNAc,0.954
same,glycan array binding signal (z-score),GlcNAc(b1-3)Man,0.691
same,glycan array binding signal (z-score),[1],0.004
same,glycan array binding signal (z-score),[2],1.1
same,glycan array binding signal (z-score),[3],0.204
same,glycan array binding signal (z-score),[4],-0.333
same,glycan array binding signal (z-score),GlcNAc(b1-4)GlcNAc,0.653
same,glycan array binding signal (z-score),[5],1.08
same,glycan array binding signal (z-score),[6],0.847
same,glycan array binding signal (z-score),[7],0.686
same,glycan array binding signal (z-score),[8],-0.006
same,glycan array binding signal (z-score),[9],0.876
same,glycan array binding signal (z-score),GlcNAc(b1-6)GalNAc,1.03
same,glycan array binding signal (z-score),[10],-0.34
same,glycan array binding signal (z-score),Kdn(a2-3)Gal(b1-3)GalNAc,0.581
same,glycan array binding signal (z-score),Kdn(a2-3)Gal(b1-3)GlcNAc,-0.341
same,glycan array binding signal (z-score),Kdn(a2-3)Gal(b1-4)Glc,-0.338
same,glycan array binding signal (z-score),Kdn(a2-3)Gal(b1-4)GlcNAc,-0.338
same,glycan array binding signal (z-score),[11],-0.315
same,glycan array binding signal (z-score),Kdn(a2-6)Gal(b1-4)GlcNAc,-0.341
same,glycan array binding signal (z-score),[12],-0.337
same,glycan array binding signal (z-score),[13],-0.325
same,glycan array binding signal (z-score),Man(a1-2)Man(a1-3)Man,-0.334
